Data from PubChem BioAssay AID1159614 (National Center for Advancing Translational Sciences (NCATS), 2016).
Out of some 45,000 compounds screened, about 65 (0.1%) were called active. Calls follow the shape of the dose curve; as a rule, active = well fitted activation curve with a large enough effect; inconclusive = small, poorly fitted or top-dose-only effect; inactive = no such curve, though single readings can be large or run the other way. Some of the results follow.

These compounds were tested against Galactocerebrosidase (Homo sapiens) (UniProt P54803) (assay: A Novel Cell-Based Assay to Identify Small Molecules for B -Galactocerebrosidase). Conditions: 145M-Twi-hGALC-G270D cells (Twitcher mouse brain line with human GALC G270D), HMU-beta-Gal fluorescence, 48 h; series mostly up to 57.5 µM; activation: at the top concentration.
Procedure, shortened: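 Fluorogenic HMU-b-Gal hydrolysis (0.1 mM final, pH 5.2 citrate-phosphate with 1 mg/mL sodium taurocholate; carbonate stop buffer) measures mutant GALC activity after compound treatment of live 145M-Twi Twitcher brain cells stably carrying human GALC-G270D, with wild-type GALC line alongside; activation sought.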
Also: 0% is about no effect; nearly all actives have a fitted effect of over 65% in size.

UniProt P54803, sequence (P54803 whole entry, looked up): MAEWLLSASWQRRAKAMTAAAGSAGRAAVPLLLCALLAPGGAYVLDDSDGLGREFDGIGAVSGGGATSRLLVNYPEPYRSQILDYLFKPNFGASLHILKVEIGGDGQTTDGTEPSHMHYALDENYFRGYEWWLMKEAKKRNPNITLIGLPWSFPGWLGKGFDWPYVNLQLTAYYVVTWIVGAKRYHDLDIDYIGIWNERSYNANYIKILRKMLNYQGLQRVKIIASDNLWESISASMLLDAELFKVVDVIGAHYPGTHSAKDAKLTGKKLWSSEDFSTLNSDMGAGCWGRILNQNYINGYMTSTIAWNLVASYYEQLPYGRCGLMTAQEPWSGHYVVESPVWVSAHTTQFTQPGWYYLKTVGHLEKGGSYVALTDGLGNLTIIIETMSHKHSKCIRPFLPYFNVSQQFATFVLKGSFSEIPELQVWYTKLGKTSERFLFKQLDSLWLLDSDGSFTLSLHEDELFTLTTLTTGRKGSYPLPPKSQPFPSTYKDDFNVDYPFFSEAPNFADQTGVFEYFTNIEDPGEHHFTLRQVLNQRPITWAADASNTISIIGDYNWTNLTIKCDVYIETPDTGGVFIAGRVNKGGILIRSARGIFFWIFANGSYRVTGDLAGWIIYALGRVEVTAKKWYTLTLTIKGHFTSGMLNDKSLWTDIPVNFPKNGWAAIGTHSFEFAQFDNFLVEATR

Row | Structure (SMILES) | activation
1 | CCOC(=O)c1sc(NC(=O)c2cc3nc(-c4ccccc4)cc(C(F)(F)F)n3n2)c(C(=O)OCC)c1C | inactive: -0.139%
2 | Cn1c(=O)oc2cc(S(=O)(=O)N3CCC(C(=O)Nc4ccc(F)c(Cl)c4)CC3)ccc21 | inactive: -21.3%
3 | O=C(Nc1cccc(Br)c1)N1CCC(CN2CCCCCC2)CC1 | inactive: -8.09%
4 | COc1cccc(CNC(=O)CN(c2ccc(C(C)C)cc2)S(=O)(=O)c2c(C)noc2C)c1 | inactive: -2.65%
5 | COC(=O)c1ccc(OCC2c3cc(OC)c(OC)cc3CCN2C(=O)Cc2ccccc2)cc1 (centres undefined) | inactive: -19.4%
6 | Cn1cnnc1SCC(=O)Nc1ccc(C#N)cc1 | inactive: -16.3%
7 | CN(CC(=O)NCc1ccccc1)S(=O)(=O)c1ccc2[nH]c3c(c2c1)CCCC3 | inactive: -14.4%
8 | COC(=O)c1c(Cl)c(Cl)c(C(=O)OC)c(Cl)c1Cl | inactive: -2.71% [at 114 µM]
9 | CC(C)(C)C1CCc2c(sc(NC(=O)c3ccc(Cl)cc3)c2C(=O)NCc2ccco2)C1 (centres undefined) | inactive: -18.6%
10 | COc1ccccc1N1CCN(c2ncnc3c2cnn3-c2cccc(Cl)c2)CC1 | inactive: -14.1%
11 | COc1ccc(-c2[nH]c(-c3cccc(OC)c3)nc2SCC(=O)NC2CCCC2)cc1 | inactive: -23.1%
12 | O=S(=O)(NCC(c1cccs1)S(=O)(=O)c1ccccc1)c1ccc(F)c(C(F)(F)F)c1 (centres undefined) | inactive: -22.7%
13 | CCN(Cc1ccccc1)S(=O)(=O)c1cc(C(=O)Nc2cc(Cl)cc(Cl)c2)ccc1F | inactive: -19.8%
14 | COc1ccc(-c2cn3nc(N4CCCC(C(=O)Nc5cc(C)cc(C)c5)C4)sc3n2)cc1 (centres undefined) | inactive: -0.428%
15 | CCc1ccccc1NC(=O)C1(C)Cc2ccccc2C(=O)O1 (centres undefined) | inactive: -13.8%
16 | O=C(C1CCN(S(=O)(=O)c2ccc(Br)s2)CC1)N1CCN(c2ccccc2)CC1 | inactive: -8.99%
17 | CC(C)(C)OC(=O)N1CCC(c2c(C(=O)NCCc3ccccc3)cnn2-c2ccc(F)cc2)CC1 | inactive: -7.16%
18 | CCN(CC)S(=O)(=O)c1ccc(C(=O)N2CC(=O)Nc3ccc(F)cc3C2c2ccccc2)cc1 (centres undefined) | inactive: -5.07%
19 | CCc1ccc(-c2nn(CC(=O)NCc3ccccc3)c3c2cnc2ccc(F)cc23)cc1 | inactive: -20.6%
20 | COc1ccc(OCC(=O)NCc2ccc3c(c2)CCN3C(=O)c2ccc(F)cc2)cc1 | inactive: -17%

Row | Structure (SMILES) | activation
21 | CC(=O)Nc1ccc2nc(SCCOc3cc(C)cc(C)c3)sc2c1 | inactive: -29.8%
22 | COc1ccc(CCN2C(=O)NC(NS(=O)(=O)c3ccc(NC(C)=O)cc3)(C(F)(F)F)C2=O)cc1OC (centres undefined) | inactive: -5.78%
23 | COc1cc(NC(=O)c2c(C)oc3c2C2=NCCN2C=N3)cc(OC)c1OC | inactive: -20.8%
24 | CC(=O)N1c2ccc(S(=O)(=O)NCC3CCC(C(=O)Nc4cc(C)ccc4C)CC3)cc2CC1C (centres undefined) | inactive: 13.5%
25 | CN(C)c1ccc(/C=C(\C#N)c2nc(-c3ccc(Cl)c(Cl)c3)cs2)cc1 | inactive: -11.8%
26 | COC(=O)c1cc(S(N)(=O)=O)ccc1OC | inactive: -7.33%
27 | COc1cc(NC(=O)COCc2cc(-c3ccc4c(c3)OCO4)on2)cc(OC)c1 | inactive: -14.8%
28 | CCn1cc(S(=O)(=O)c2ccccc2)c(=O)c2cc(F)c(N3CCN(c4ccccc4)CC3)cc21 | inactive: -3.65%
29 | CCN(CC)C(=O)c1sc2c(c1C)c(=O)n(-c1ccc(OC)cc1OC)c(=O)n2CC(=O)c1ccc(Cl)cc1 | inactive: -16.1%
30 | O=C(Nc1ccc(OC(F)(F)F)cc1)C1CCN(S(=O)(=O)c2cccs2)CC1 | inactive: -5.38%
31 | COc1cc(NC(=O)c2oc3c(c2C)-c2nn(Cc4cccc(Cl)c4)cc2CC3)cc(OC)c1 | inactive: -19.4%
32 | CCOc1ccc(N(C(C)C(=O)Nc2cc(Cl)ccc2OC)S(C)(=O)=O)cc1 (centres undefined) | inactive: -11.9%
33 | Cc1ccc(-n2c(=O)c3c(cnn3C)n(Cc3ccccc3F)c2=O)cc1 | inactive: 5.2%
34 | Cc1ccccc1-c1noc(-c2ccc(N3CCOCC3)c([N+](=O)[O-])c2)n1 | inactive: -18.4%
35 | Cn1c2ccccc2c2cnn(CC(=O)Nc3ccccc3C(F)(F)F)c(=O)c21 | inactive: 0.864%
36 | Cc1ccc(-c2noc(-c3ccccc3NC(=O)C3CC(=O)N(c4ccccc4C)C3)n2)cc1 (centres undefined) | inactive: -3.69%
37 | CCn1ccc2c(OCC(=O)NCc3ccc(F)cc3)cccc2c1=O | inactive: -9.95%
38 | O=C(NCCc1nc2ccccc2n1Cc1ccc(Cl)cc1Cl)c1ccco1 | inactive: -8.78%
39 | CC(C)Sc1ncc(Cl)c(C(=O)N(Cc2ccc(N(C)C)cc2)C2CCS(=O)(=O)C2)n1 (centres undefined) | inactive: -5.39%
40 | CCc1nn(CC(=O)Nc2ccc(N(CC)CC)cc2C)c(=O)c2cc3sccc3n12 | inactive: -19.9%

Row | Structure (SMILES) | activation
41 | N#Cc1ccc(C(=O)Nc2ccc3c(c2)N(C2CCCC2)C(=O)c2ccccc2S3)cc1 | inactive: -7.85%
42 | Cc1ccc(Cn2c(CN3CCC(C(=O)NCCc4ccccc4)CC3)cc3ccccc32)cc1 | inactive: -12.6%
43 | Cc1cc(C)c2nc(N(Cc3cccnc3)C(=O)c3cccs3)sc2c1 | inactive: -8.36%
44 | CCOc1ccc(C2C(C(=O)Nc3ccccc3)=C(C)Nc3nc(SCc4cc(C)ccc4C)nn32)cc1 (centres undefined) | inactive: -9.11%
45 | CC(C)Cn1c(=O)c2ccccc2n2c(CCC(=O)NC(C)c3ccccc3)nnc12 (centres undefined) | inactive: -17.8%
46 | COc1ccc(CNC(=O)c2cc(-c3ccc(Br)s3)nc3ccccc23)c(OC)c1 | inactive: -5.54%
47 | Cc1ccc(-n2ncc(C(=O)Nc3ccc4c(c3)OCCO4)c2C2CCN(C(=O)OC(C)(C)C)CC2)cc1C | inactive: -11.4%
48 | CC1=C(C(=O)NCc2cccc(F)c2)C2(CCCCCC2)OC1=O | inactive: -4.53%
49 | COc1ccccc1NC(=O)CC1Sc2ccc(C(F)(F)F)cc2NC1=O (centres undefined) | inactive: -5.84%
50 | CCOc1ccccc1CNC(=O)Cn1c(=O)c2cccn2c2ccc(F)cc21 | inactive: -17.3%
51 | COc1ccc(Nc2nc3ccc(C)cc3nc2-n2nc(C)cc2C)cc1Cl | inactive: -8.87%
52 | COc1ccccc1N1CCN(C(=O)Cn2ncc3c2-c2cc(C)ccc2OC3)CC1 | inactive: -6.81%
53 | COCCN1CCc2nc(SCC(=O)Nc3ccc(C)c(Cl)c3)[nH]c(=O)c2C1 | inactive: -11.3%
54 | Cc1ccc(OCCSc2nc3ccccc3n2CC(=O)N2CCOCC2)cc1 | inactive: -28.3%
55 | CC1=C(C(=O)OCc2ccc(C)cc2)C(c2ccccc2C(F)(F)F)CC(=O)N1 (centres undefined) | inactive: 3.38%
56 | CCOc1ccc(C(=O)Nc2ccc3c(c2)CCCN3S(=O)(=O)c2ccc(C)cc2)cc1 | inactive: -4.21%
57 | CC1CCCCN1Cc1c(O)ccc2c(=O)c(-c3ccc(Cl)cc3)c(C(F)(F)F)oc12 (centres undefined) | inactive: 4.04%
58 | COc1ccc(-c2onc(C)c2C)cc1S(=O)(=O)NCc1cccs1 | inactive: -5.66%
59 | CCOC(=O)c1noc2ncn(CC(=O)Nc3ccc(F)cc3Cl)c(=O)c12 | inactive: -18.9%
